# Laboratory results published in the supplement of paper PMC9174493.
# The list shows a part of the results. Single values of this set are uncertain. Values with irradiation are relative to irradiated vehicle.
# Tests used:
# A549-Dual [1] = test: NF-kB reporter (SEAP) activity, viability-corrected, relative to vehicle (fold change vs vehicle); higher = more activation of STING-IRF / NF-kB immune response reporter
# A549-Dual [2] = test: ISRE reporter (Lucia luciferase) activity, viability-corrected, relative to vehicle (fold change vs vehicle); higher = more activation of STING-IRF / NF-kB immune response reporter
# 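For NF-kB reporter (SEAP) activity, viability-corrected, relative to vehicle in this document: viability correction based on the alamar blue assay, with concentrations leaving 10% survival or less dropped.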
Structure (SMILES),"NF-kB reporter (A549-Dual [1]; 0.1 µM, irradiation: 8 Gy/4 fr)","NF-kB reporter (A549-Dual [1]; 0.1 µM, irradiation: none)","NF-kB reporter (A549-Dual [1]; 0.3 µM, irradiation: 8 Gy/4 fr)","NF-kB reporter (A549-Dual [1]; 0.3 µM, irradiation: none)","NF-kB reporter (A549-Dual [1]; 1 µM, irradiation: 8 Gy/4 fr)","NF-kB reporter (A549-Dual [1]; 1 µM, irradiation: none)","NF-kB reporter (A549-Dual [1]; 3 µM, irradiation: 8 Gy/4 fr)","NF-kB reporter (A549-Dual [1]; 3 µM, irradiation: none)","NF-kB reporter (A549-Dual [1]; 10 µM, irradiation: 8 Gy/4 fr)","NF-kB reporter (A549-Dual [1]; 10 µM, irradiation: none)","ISRE reporter (A549-Dual [2]; 0.1 µM, irradiation: 8 Gy/4 fr)","ISRE reporter (A549-Dual [2]; 0.1 µM, irradiation: none)","ISRE reporter (A549-Dual [2]; 0.3 µM, irradiation: 8 Gy/4 fr)","ISRE reporter (A549-Dual [2]; 0.3 µM, irradiation: none)","ISRE reporter (A549-Dual [2]; 1 µM, irradiation: 8 Gy/4 fr)","ISRE reporter (A549-Dual [2]; 1 µM, irradiation: none)","ISRE reporter (A549-Dual [2]; 3 µM, irradiation: 8 Gy/4 fr)","ISRE reporter (A549-Dual [2]; 3 µM, irradiation: none)","ISRE reporter (A549-Dual [2]; 10 µM, irradiation: 8 Gy/4 fr)","ISRE reporter (A549-Dual [2]; 10 µM, irradiation: none)"
O=c1c(-c2ccc(O)cc2)coc2cc(O)cc(O)c12 [Genistein],0.997,0.993,1.15,1.06,0.838,1,1.01,0.867,0.971,1.28,0.958,0.937,1.3,1.17,0.918,0.873,1,0.808,0.905,4.73
Cl.c1ccc2c(c1)CCCC2C1=NCCN1 (stereo not given) [Tetrahydrozoline HCl],1.16,0.937,1.26,0.812,1.04,0.884,0.995,1.02,1.12,0.97,1.15,0.88,0.994,0.851,0.93,0.918,0.936,1.07,0.955,0.847
O=C([O-])c1cc(=O)c2c(OCC(O)COc3cccc4oc(C(=O)[O-])cc(=O)c34)cccc2o1.[Na+].[Na+] [Disodium Cromoglycate],1.34,1.23,1.34,1.24,0.921,1.05,1.3,1.07,1.24,1.14,1.22,1.61,1.24,1.4,1.42,1.06,1.32,1.25,1.22,1.02
O.S=c1nc[nH]c2nc[nH]c12 [6-Mercaptopurine (6-MP) Monohydrate],0.903,0.91,0.848,0.884,0.885,1.08,0.844,0.968,0.854,0.833,0.975,0.865,0.837,0.83,0.9,0.824,0.74,0.521,0.784,0.64
C1N2CN3CN1CN(C2)C3 [Methenamine],1.2,1.13,1.39,1.11,1.33,1.04,1.53,1.15,1.56,1.34,1.07,1.05,0.997,0.803,0.942,0.875,1.02,1.02,1.07,0.776
CNC(=O)c1cc(Oc2ccc(NC(=O)Nc3ccc(Cl)c(C(F)(F)F)c3)c(F)c2)ccn1 [Regorafenib (BAY 73-4506)],1.06,1.04,1.07,1.23,0.765,1.15,0.919,0.979,0.735,0.847,0.805,0.839,0.888,0.847,0.645,0.735,0.297,0.41,0.206,0.284
CCOc1cc(C(CS(C)(=O)=O)N2C(=O)c3cccc(NC(C)=O)c3C2=O)ccc1OC (stereo not given),0.874,1.12,0.878,1.05,1.16,0.879,1.22,0.984,0.704,0.442,0.922,1.12,0.837,0.931,1,0.926,0.711,0.825,0.754,0.796
O=C(O)CCC(=O)c1ccc(-c2ccccc2)cc1 [Fenbufen],0.954,0.86,0.983,0.648,1.18,0.872,1.06,0.827,0.897,0.927,0.934,0.686,0.786,0.592,0.733,0.667,0.74,0.934,0.991,0.979
CN(C)C(=O)COC(=O)Cc1ccc(OC(=O)c2ccc(NC(=N)N)cc2)cc1.CS(=O)(=O)O [Camostat Mesilate],0.866,1.27,0.722,1.52,1.29,0.997,1.33,0.992,0.771,0.84,1.01,0.99,0.784,1.07,0.792,0.871,0.853,0.903,0.603,0.719
CC(=O)Oc1cccc2c1C(=O)c1c(OC(C)=O)cc(C(=O)O)cc1C2=O [Diacerein],1.23,0.873,0.916,0.825,1.27,0.846,1.1,0.854,0.956,0.983,1.05,0.677,0.839,0.606,0.747,0.762,0.762,0.834,0.852,0.865
Cc1ccc(-c2ncc(Cl)cc2-c2ccc(S(C)(=O)=O)cc2)cn1 [Etoricoxib],0.985,1.13,1.06,0.841,1.02,0.857,1.11,0.867,0.923,1.01,1.01,0.817,0.923,0.705,0.791,0.705,0.791,0.817,0.826,0.854
Cc1c(N)c(=O)n(-c2ccccc2)n1C [4-Aminoantipyrine],0.993,1.05,0.868,0.884,1.27,0.978,1.1,0.892,1.04,0.994,0.959,0.819,0.934,0.715,0.728,0.672,0.778,0.798,0.793,0.738
CCCCOc1ccc(CC(=O)NO)cc1 [Bufexamac],0.837,0.577,0.63,0.532,0.832,0.588,0.478,0.653,0.487,0.414,0.819,0.824,0.578,0.693,0.822,0.668,0.58,0.683,0.593,0.649
Cc1nccn1CC1CCc2c(c3ccccc3n2C)C1=O.Cl (stereo not given) [Ondansetron HCl],0.885,1.39,1.11,1.49,1.51,1.1,1.4,1.11,1.07,1.1,1.01,0.772,0.914,1.04,0.851,0.856,0.78,1.19,0.784,0.803
CC#CCn1c(N2CCCC(N)C2)nc2c1c(=O)n(Cc1nc(C)c3ccccc3n1)c(=O)n2C (stereo not given) [Linagliptin],0.933,1.13,1.01,0.997,1.03,1.45,0.906,1.1,0.97,1.09,1.03,1.13,1.16,0.978,1.07,1.08,1.19,0.903,1.1,1.11
COC1=C(OC)C(=O)C(CCCCCCCCCCO)=C(C)C1=O [Idebenone],0.955,1.34,0.932,1.41,1.56,1.12,1.63,1.17,1.09,1.11,1.08,1.02,0.87,1.04,1.04,1.04,1.05,1.07,1.13,1.27
CC(C)(C)NCC(O)c1ccc(O)c(CO)c1 (stereo not given) [Salbutamol],0.768,0.45,0.638,0.437,0.899,0.72,0.409,0.565,0.524,0.948,0.715,0.737,0.578,0.668,0.907,1.07,0.571,0.644,0.711,1
CCOC(=O)N1CCC(=C2c3ccc(Cl)cc3CCc3cccnc32)CC1 [Loratadine],0.963,1.26,1,1.62,1.33,0.991,1.34,0.984,0.896,1.08,0.943,0.834,0.847,0.962,0.783,0.917,0.767,0.971,0.909,2.02
COc1cc2nccc(Oc3ccc(NC(=O)Nc4cc(C)on4)c(Cl)c3)c2cc1OC [Tivozanib (AV-951)],0.786,0.979,0.816,0.978,0.635,0.955,0.598,0.772,0.612,0.737,0.732,0.862,0.816,0.734,0.521,0.827,0.285,1.03,0.53,0.495
CCC(C(=O)O)c1ccc(N2Cc3ccccc3C2=O)cc1 (stereo not given) [Indobufen],1.12,0.94,1.15,0.769,1.19,0.833,1.28,0.874,1,0.876,1.06,0.975,0.941,0.787,0.864,0.768,0.945,0.884,1.09,0.892
NC(CO)(CO)CO [Trometamol],1.33,0.823,1.03,0.639,1.13,0.96,0.81,0.929,0.962,0.974,1.02,0.923,0.933,0.753,0.938,0.807,0.9,0.906,0.914,0.65
CCCCC(=O)OC1(C(=O)CO)C(C)CC2C3CCC4=CC(=O)C=CC4(C)C3(F)C(O)CC21C (stereo not given) [Betamethasone Valerate],0.655,1.26,0.876,1.48,1.28,1.11,1.47,1.01,0.956,0.835,0.0671,0.314,0.0651,0.367,0.0599,0.328,0.0714,0.39,0.0682,0.335
O=C(O)Cc1ccccc1Nc1c(Cl)cccc1Cl.OCCN1CCCC1 [Diclofenac Epolamine],0.966,0.79,0.758,0.644,0.948,0.697,0.994,0.79,0.575,0.824,0.888,0.658,0.749,0.561,0.628,0.592,0.64,0.782,0.491,0.559
Cn1cnc([N+](=O)[O-])c1Sc1ncnc2nc[nH]c12 [Azathioprine],0.956,1.34,0.946,1.42,1.32,1.06,1.52,1.11,0.682,0.794,1.05,1.16,0.945,0.988,0.928,0.888,0.831,0.758,0.444,0.659
